# Laboratory results from the supplement of paper PMC8728848.
# This is one part of the list.
# B1: CAA (Caragana arborescens) (protein)
# chain: VAVEFDTFDNPDWDPRTKHIGIDVNSIRSNKTTQWGFWNRQVADVDISYEASSKTLNVSLYYPGESYIVTDVVDLKDILPEWVRIGF
# Key:
# Assay in all cases: glycan array binding signal (z-score within array); higher = stronger binding
# Conditions in all cases: glycan notation: IUPAC condensed, linker removed
# [1] = biological target: Neu5Ac(a2-6)Gal(b1-4)GlcNAc(b1-2)Man(a1-3)[GlcNAc(b1-4)][Neu5Ac(a2-6)Gal(b1-4)GlcNAc(b1-2)Man(a1-6)]Man(b1-4)GlcNAc(b1-4)GlcNAc
# Method in brief: (§1)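 The binding signal is a Z-score computed within each array. Data were drawn from 3228 arrays in the Consortium for Functional Glycomics database, restricted to those with a known protein sequence. Scores were averaged over arrays of the same protein sequence at different concentrations or buffers, and over linkers, and negative values can be taken as non-binding.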
# [2] = biological target: Neu5Ac(a2-6)Gal(b1-4)GlcNAc(b1-2)Man(a1-3)[Man(a1-6)]Man(b1-4)GlcNAc(b1-4)GlcNAc
# Method in brief: as §1
# [3] = biological target: Neu5Ac(a2-6)Gal(b1-4)GlcNAc(b1-2)Man(a1-3)[Neu5Ac(a2-3)Gal(b1-4)GlcNAc(b1-2)Man(a1-6)]Man(b1-4)GlcNAc(b1-4)GlcNAc
# Method in brief: as §1
# [4] = biological target: Neu5Ac(a2-6)Gal(b1-4)GlcNAc(b1-2)Man(a1-3)[Neu5Ac(a2-6)Gal(b1-4)GlcNAc(b1-2)Man(a1-6)]Man(b1-4)GlcNAc(b1-4)GlcNAc
# Method in brief: as §1
# [5] = biological target: Neu5Ac(a2-6)Gal(b1-4)GlcNAc(b1-2)Man(a1-3)[Neu5Ac(a2-6)Gal(b1-4)GlcNAc(b1-2)Man(a1-6)]Man(b1-4)GlcNAc(b1-4)[Fuc(a1-6)]GlcNAc
# Method in brief: as §1
# [6] = biological target: Neu5Ac(a2-6)Gal(b1-4)GlcNAc(b1-2)Man(a1-6)Man(b1-4)GlcNAc(b1-4)GlcNAc
# Method in brief: as §1
# [7] = biological target: Neu5Ac(a2-6)Gal(b1-4)GlcNAc(b1-2)Man(a1-6)[Gal(b1-4)GlcNAc(b1-2)Man(a1-3)]Man(b1-4)GlcNAc(b1-4)GlcNAc
# Method in brief: as §1
# [8] = biological target: Neu5Ac(a2-6)Gal(b1-4)GlcNAc(b1-2)Man(a1-6)[GlcNAc(b1-2)Man(a1-3)]Man(b1-4)GlcNAc(b1-4)GlcNAc
# Method in brief: as §1
# [9] = biological target: Neu5Ac(a2-6)Gal(b1-4)GlcNAc(b1-2)Man(a1-6)[Man(a1-3)]Man(b1-4)GlcNAc(b1-4)GlcNAc
# Method in brief: as §1
# [10] = biological target: Neu5Ac(a2-6)Gal(b1-4)GlcNAc(b1-2)[Neu5Ac(a2-6)Gal(b1-4)GlcNAc(b1-4)]Man(a1-3)[GlcNAc(b1-4)][Neu5Ac(a2-6)Gal(b1-4)GlcNAc(b1-2)[Neu5Ac(a2-6)Gal(b1-4)GlcNAc(b1-6)]Man(a1-6)]Man(b1-4)GlcNAc(b1-4)GlcNAc
# Method in brief: as §1
# [11] = biological target: Neu5Ac(a2-6)Gal(b1-4)GlcNAc(b1-2)[Neu5Ac(a2-6)Gal(b1-4)GlcNAc(b1-4)]Man(a1-3)[GlcNAc(b1-4)][Neu5Ac(a2-6)Gal(b1-4)GlcNAc(b1-4)Man(a1-6)]Man(b1-4)GlcNAc(b1-4)GlcNAc
# Method in brief: as §1
# [12] = biological target: Neu5Ac(a2-6)Gal(b1-4)GlcNAc(b1-2)[Neu5Ac(a2-6)Gal(b1-4)GlcNAc(b1-6)]Man(a1-6)[Neu5Ac(a2-6)Gal(b1-4)GlcNAc(b1-2)Man(a1-3)][GlcNAc(b1-4)]Man(b1-4)GlcNAc(b1-4)GlcNAc
# Method in brief: as §1
# [13] = biological target: Neu5Ac(a2-6)Gal(b1-4)GlcNAc(b1-3)Gal(b1-3)GlcNAc
# Method in brief: as §1
# [14] = biological target: Neu5Ac(a2-6)Gal(b1-4)GlcNAc(b1-3)Gal(b1-4)GlcNAc
# Method in brief: as §1
# [15] = biological target: Neu5Ac(a2-6)Gal(b1-4)GlcNAc(b1-3)Gal(b1-4)GlcNAc(b1-2)Man(a1-3)[Neu5Ac(a2-6)Gal(b1-4)GlcNAc(b1-3)Gal(b1-4)GlcNAc(b1-2)Man(a1-6)]GalNAc
# Method in brief: as §1
# [16] = biological target: Neu5Ac(a2-6)Gal(b1-4)GlcNAc(b1-3)Gal(b1-4)GlcNAc(b1-3)Gal(b1-4)GlcNAc
# Method in brief: as §1
# [17] = biological target: Neu5Ac(a2-6)Gal(b1-4)GlcNAc(b1-3)Gal(b1-4)GlcNAc(b1-3)Gal(b1-4)GlcNAc(b1-2)Man(a1-3)[Neu5Ac(a2-6)Gal(b1-4)GlcNAc(b1-3)Gal(b1-4)GlcNAc(b1-3)Gal(b1-4)GlcNAc(b1-2)Man(a1-6)]GalNAc
# Method in brief: as §1
# [18] = biological target: Neu5Ac(a2-6)Gal(b1-4)GlcNAc(b1-3)Gal(b1-4)GlcNAc(b1-3)GalNAc
# Method in brief: as §1
# [19] = biological target: Neu5Ac(a2-6)Gal(b1-4)GlcNAc(b1-3)Gal(b1-4)GlcNAc(b1-3)[Neu5Ac(a2-6)Gal(b1-4)GlcNAc(b1-3)Gal(b1-4)GlcNAc(b1-6)]GalNAc
# Method in brief: as §1
# [20] = biological target: Neu5Ac(a2-6)Gal(b1-4)GlcNAc(b1-3)Gal(b1-4)GlcNAc(b1-6)[Gal(b1-3)]GalNAc
# Method in brief: as §1
# [21] = biological target: Neu5Ac(a2-6)Gal(b1-4)GlcNAc(b1-3)Gal(b1-4)[Fuc(a1-3)]GlcNAc(b1-3)Gal(b1-4)[Fuc(a1-3)]GlcNAc
# Method in brief: as §1
# [22] = biological target: Neu5Ac(a2-6)Gal(b1-4)GlcNAc(b1-3)GalNAc
# Method in brief: as §1
# [23] = biological target: Neu5Ac(a2-6)Gal(b1-4)GlcNAc(b1-3)[Neu5Ac(a2-6)Gal(b1-4)GlcNAc(b1-6)]GalNAc
# Method in brief: as §1
# [24] = biological target: Neu5Ac(a2-6)Gal(b1-4)GlcNAc(b1-6)GalNAc
# Method in brief: as §1
# [25] = biological target: Neu5Ac(a2-6)Gal(b1-4)GlcNAc(b1-6)[Gal(b1-3)GlcNAc(b1-3)]Gal(b1-4)Glc
# Method in brief: as §1
# [26] = biological target: Neu5Ac(a2-6)Gal(b1-4)GlcNAc(b1-6)[Gal(b1-3)]GalNAc
# Method in brief: as §1
# [27] = biological target: Neu5Ac(a2-6)Gal(b1-4)GlcNAc6S
# Method in brief: as §1
# Neu5Ac(a2-6)GalNAc = biological target: Neu5Ac(a2-6)GalNAc
# Method in brief: as §1
# [28] = biological target: Neu5Ac(a2-6)GalNAc(b1-4)GlcNAc
# Method in brief: as §1
# [29] = biological target: Neu5Ac(a2-6)GalNAc(b1-4)GlcNAc6S
# Method in brief: as §1
# [30] = biological target: Neu5Ac(a2-6)GlcNAc(b1-4)GlcNAc
# Method in brief: as §1
binder,measurement,setting,value
B1,glycan array binding signal (z-score),[1],-0.251
same,glycan array binding signal (z-score),[2],0.613
same,glycan array binding signal (z-score),[3],2.38
same,glycan array binding signal (z-score),[4],2.31
same,glycan array binding signal (z-score),[5],3.38
same,glycan array binding signal (z-score),[6],-0.233
same,glycan array binding signal (z-score),[7],3.9
same,glycan array binding signal (z-score),[8],5.95
same,glycan array binding signal (z-score),[9],0.262
same,glycan array binding signal (z-score),[10],-0.125
same,glycan array binding signal (z-score),[11],-0.245
same,glycan array binding signal (z-score),[12],-0.254
same,glycan array binding signal (z-score),[13],-0.255
same,glycan array binding signal (z-score),[14],-0.246
same,glycan array binding signal (z-score),[15],-0.184
same,glycan array binding signal (z-score),[16],-0.242
same,glycan array binding signal (z-score),[17],-0.137
same,glycan array binding signal (z-score),[18],-0.261
same,glycan array binding signal (z-score),[19],-0.147
same,glycan array binding signal (z-score),[20],-0.252
same,glycan array binding signal (z-score),[21],-0.245
same,glycan array binding signal (z-score),[22],-0.243
same,glycan array binding signal (z-score),[23],-0.251
same,glycan array binding signal (z-score),[24],-0.236
same,glycan array binding signal (z-score),[25],-0.246
same,glycan array binding signal (z-score),[26],-0.247
same,glycan array binding signal (z-score),[27],-0.24
same,glycan array binding signal (z-score),Neu5Ac(a2-6)GalNAc,-0.245
same,glycan array binding signal (z-score),[28],-0.241
same,glycan array binding signal (z-score),[29],-0.257
same,glycan array binding signal (z-score),[30],-0.247
